The values below come from article PMC4336329 (PLoS ONE, 2015).

In all, about 310,000 compounds went through this assay and about 14,000 (4.5%) showed an effect of 50% or more. Effects have a minus sign here. This is one part of the list.
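Also: peak tail current of the secondary pulse compared with the same well before compound.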

The target in this experiment is human ether-à-go-go-related gene (hERG) potassium channel (human, UniProt Q12809). Briefly: primary screen, population patch clamp on CHO cells stably expressing hERG.
human ether-à-go-go-related gene (hERG) potassium channel, sequence (Q12809 whole entry, looked up): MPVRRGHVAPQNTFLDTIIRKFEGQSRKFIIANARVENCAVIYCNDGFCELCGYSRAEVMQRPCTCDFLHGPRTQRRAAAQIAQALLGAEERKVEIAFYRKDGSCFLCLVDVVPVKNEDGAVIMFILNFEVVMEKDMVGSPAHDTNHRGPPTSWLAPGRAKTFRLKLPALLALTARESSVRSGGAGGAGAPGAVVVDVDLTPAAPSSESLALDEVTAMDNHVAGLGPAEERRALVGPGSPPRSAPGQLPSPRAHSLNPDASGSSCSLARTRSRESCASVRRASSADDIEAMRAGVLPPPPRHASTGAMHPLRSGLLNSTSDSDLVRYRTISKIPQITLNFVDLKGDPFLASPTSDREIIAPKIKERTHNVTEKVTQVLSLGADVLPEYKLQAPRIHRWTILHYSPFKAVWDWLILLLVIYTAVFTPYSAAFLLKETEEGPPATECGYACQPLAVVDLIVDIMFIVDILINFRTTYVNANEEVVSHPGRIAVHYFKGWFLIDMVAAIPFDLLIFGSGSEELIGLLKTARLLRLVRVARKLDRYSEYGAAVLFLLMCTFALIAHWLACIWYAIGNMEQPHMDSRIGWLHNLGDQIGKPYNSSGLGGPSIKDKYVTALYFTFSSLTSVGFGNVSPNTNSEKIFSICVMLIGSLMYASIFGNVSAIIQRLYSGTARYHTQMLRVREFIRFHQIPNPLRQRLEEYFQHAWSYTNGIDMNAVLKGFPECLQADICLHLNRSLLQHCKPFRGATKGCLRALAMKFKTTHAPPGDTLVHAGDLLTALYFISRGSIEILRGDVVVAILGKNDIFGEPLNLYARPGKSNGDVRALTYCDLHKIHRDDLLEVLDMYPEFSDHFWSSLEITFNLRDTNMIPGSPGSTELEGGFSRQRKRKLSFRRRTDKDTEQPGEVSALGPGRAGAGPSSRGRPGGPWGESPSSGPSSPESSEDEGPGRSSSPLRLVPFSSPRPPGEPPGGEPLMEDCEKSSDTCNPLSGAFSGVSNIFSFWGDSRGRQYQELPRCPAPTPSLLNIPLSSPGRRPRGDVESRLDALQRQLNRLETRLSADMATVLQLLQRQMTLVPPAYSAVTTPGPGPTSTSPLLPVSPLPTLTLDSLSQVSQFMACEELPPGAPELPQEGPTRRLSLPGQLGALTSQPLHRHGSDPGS
For the molecule `O=C(Nc1ccccc1)C1=C[C@H](c2ccc3c(c2)OCO3)C[C@H](OCCCCO)O1`, the “hERG current change (%, negative = inhibition) at 10uM” value is recorded as -33%.
Regarding `O=C(NC1CCCCC1)c1ccc(Br)o1`, the “hERG current change (%, negative = inhibition) at 10uM” value stood at 16.3%.
Under `O=C(c1cc(COc2cccc(C(F)(F)F)c2)on1)N1CCSCC1` stands -17%.
Under `Cc1noc(C)c1CSc1cc(C)c2ccccc2n1` stands 2.82%.
For `CCn1c(=O)c2cc(C(=O)NCCC(C)C)sc2c2ccccc21`, the “hERG current change (%, negative = inhibition) at 10uM” value is given as 17.4%.
Under `O=C(Nc1cc(C(F)(F)F)ccc1N1CCOCC1)c1cccs1` stands 3.61%; under `Cc1ccc(CNc2nnnn2C)cc1`, 9.69%; under `Nc1nc(SCC(=O)Nc2cc(-c3ccccc3)nn2-c2ccccc2)n[nH]1`, 7.5%.
Next, `CCOc1ccc(-c2ccc(SCC(=O)N3CCOCC3)nn2)cc1`: -30.5%; `Cc1cc(=O)[nH]c(SCc2nc3ccccc3n2Cc2ccccc2)n1`: -5.55%.
Turning to `C=CCNC(=O)c1onc(CCl)c1C(=O)OC`, the “hERG current change (%, negative = inhibition) at 10uM” value is reported as 11.8%.
Next, `CN1/C(=C\C=C\C2=[N+](C)c3ccc4ccccc4c3C2(C)C)C(C)(C)c2ccccc21.[O-][Cl+3]([O-])([O-])[O-]`: -75.7%; `CC1CN(C(=O)c2cc3cc([N+](=O)[O-])ccc3oc2=O)CC(C)O1` (stereo not shown): 5.39%; `N#Cc1ccc(-c2ccc(OCC(O)CN3CCCCC3)cc2)cc1` (stereo not shown): -80.7%.
Under `CCn1c(O)c(/C=C2\C=Nc3ccccc32)sc1=O` stands 0.416%; under `COC(=O)c1c(NC(=O)CSc2nc3nc(C)cc(C)n3n2)sc(C)c1C`, 4.35%; under `CCOC(=O)c1ccccc1N=Cc1c(O)c2ccccc2oc1=O`, 20.4%.
Next, `COc1ccc(OC)c(-c2cc(C(=O)Nc3c(C)nn(Cc4ccccc4Cl)c3C)no2)c1`: 8.03%; `CC1(C)CC(=O)C2=C(C1)Nc1ncnn1C2c1ccccn1` (stereo not shown): 8.11%; `CCC1CCCCN1CCN1C(=O)C2C(C(=O)Nc3cccc(OC)c3)C3C=CC2(O3)C1C(=O)NC1CCCCC1` (stereo not shown): -16.7%.
As to `CCC(c1nnc(SCC(=O)NNC(=O)c2ccccc2)n1Cc1ccccc1)N(C)C` (stereo not shown), the “hERG current change (%, negative = inhibition) at 10uM” value is recorded as 9.95%.
With `O=[N+]([O-])c1ccc(/C=N/NC(=S)Nc2ccccc2)o1`, the “hERG current change (%, negative = inhibition) at 10uM” value is recorded as -0.689%.
Under `CS(=O)(=O)N(CC(=O)N1CCc2ccccc2C1)c1ccc(Cl)cc1F` stands -3.5%.
Consider `O=C1c2ccccc2CC1Sc1nnc(-c2ccncc2)o1` (stereo not shown), for which the “hERG current change (%, negative = inhibition) at 10uM” value is on record as -15.7%.
Next, `O=C1CCC(C(=O)Nc2cccc(C(F)(F)F)c2)N1` (stereo not shown): 22.4%; `O=[N+]([O-])c1cccc(-c2ccc(/C=N/NC(=S)NCc3ccco3)o2)c1`: 13.2%.
Under `Cc1ccc(NC(=O)CSCC(=O)Nc2cc(Cl)ccc2N2CCOCC2)cc1` stands -14.8%; under `COc1ccc2c(-c3ccccc3)cc(SCC(=O)N(C)C3CCS(=O)(=O)C3)nc2c1` (stereo not shown), -39.7%; under `CCCCN1C(=O)N(c2ccc(Cl)cc2)C(C)(O)CC1(C)C` (stereo not shown), 9.21%.
Turning to `Cc1cccc(N2CCN(C(=O)c3cccc(N4C(=O)C5C6C=CC(C6)C5C4=O)c3)CC2C)c1` (stereo not shown), the “hERG current change (%, negative = inhibition) at 10uM” value is given as -0.155%.
Under `O=C(CCc1ccccc1)NNC(=O)c1ccc(NC(=O)c2ccccc2)cc1` stands 2.53%.
With `O=C(CCn1c(=O)sc2ccccc21)NC1CCCCC1`, the “hERG current change (%, negative = inhibition) at 10uM” value is 3.46%.
Next, `CCCCCCNCC1OCc2ccccc2CO1`: -25.4%; `COc1ccc(S(=O)(=O)NC2CCCCC2)cc1F`: -1.55%; `O=S(=O)(Nc1ccc2c(c1)nc1n2CCN(Cc2ccccc2)C1)c1ccc(Cl)cc1`: -2.38%.
On to `Cc1ccc(CNC(=O)COc2ccc(C(=O)c3ccc(F)cc3)cc2)cc1`, for which the “hERG current change (%, negative = inhibition) at 10uM” value was -12.9%.
Under `COc1ccc(CC(=O)Nc2ccc(-c3csc(C)n3)cc2)cc1` stands 7.89%.
Next, `CCCS(=O)(=O)N1CCCC(C(=O)NC2CCCCC2)C1` (stereo not shown): 8.01%; `Cc1nn2c(CN(C(=O)CN3CCOCC3)c3ccccc3)nnc2c2ccccc12`: -3.15%.
Under `O=C(NCCCN1CCCC1=O)C1CCN(S(=O)(=O)c2cccc(Cl)c2Cl)CC1` stands -18.7%; under `C=CCn1c(N2CCCCCC2)nc2c1c(=O)n(C)c(=O)n2C`, -9.79%; under `CC1C/C(=N/Nc2nc3ccccc3[nH]2)CC(C)(C)C1` (stereo not shown), -13.4%.
As for `CNC[C@H](CC1CCCCC1)NC[C@H](CO)NCC1(c2ccccc2)CC1`, the “hERG current change (%, negative = inhibition) at 10uM” value is given as 27%.
In the case of `CCCCn1c(N)c(-c2nc3ccccc3s2)c2c([N+](=O)[O-])nn(CC)c(=O)c21`, the “hERG current change (%, negative = inhibition) at 10uM” value is on record as 14.3%.
Next, `Brc1ccc(-c2nnc3sc(CN4CCC5(CC4)OCCO5)cn23)cc1`: 6.54%; `COC(=O)[C@H](CC(C)C)NC(=O)Nc1cccc(Br)c1`: 7.81%; `Cc1ccc(S(=O)(=O)Nc2c(Cl)c(Cl)c(O)c3ccccc23)cc1`: 10.1%.
Next, `O=C1OC(N2C(=O)CC[C@H]2C(=O)Nc2ccc(Br)cc2F)c2ccccc21` (stereo partly shown): 3.87%; `COC(=O)c1ccc(/C=C2/SC(=S)N(CCC(=O)N3CCOCC3)C2=O)cc1`: 15.8%; `COCCOC(=O)c1c(NC(=O)CN2CCCc3ccccc32)sc(C(N)=O)c1C`: -0.899%.
Next, `Cc1ccc(S(=O)(=O)NCc2c(-c3ccccc3)c3cc(Cl)ccc3[nH]c2=O)cc1`: 7.18%; `COc1ccc(NC(=O)CC2C(=O)N(c3ccc(F)cc3)C(=S)N2NC(=O)c2ccccc2)cc1` (stereo not shown): 3.61%; `CC(C)N(Cc1ccccc1)C(=O)CN1C(=O)NC2(CCCCCC2)C1=O`: -6.36%.
Turning to `O=C(NC(Cc1c[nH]c2ccccc12)c1nnc2n1CCCCC2)c1ccccc1Cl` (stereo not shown), the “hERG current change (%, negative = inhibition) at 10uM” value amounted to 4.83%.
Under `O=C(CCc1nc2ccccc2c(=O)[nH]1)NCc1ccccn1` stands 24.4%; under `O=C(C1CCCCC1)N1CCN(c2nc(-c3ccc(F)cc3)cs2)CC1`, 15.1%.
Next, `CCOCCCNC(=O)Cn1cnc2c(cnn2-c2ccc(C)c(C)c2)c1=O`: 3.91%; `CCC(C)(C)n1nnnc1C(c1ccccc1)N1CCN(Cc2ccccc2)CC1` (stereo not shown): -32%; `CN1CCc2c(sc(/N=C/c3cccs3)c2C(N)=O)C1`: -33.4%.
Under `CCOC(=O)c1ccc(NC(=S)NN2CCN(C)CC2)cc1` stands -3.95%; under `COc1cc(/C=N/NC(=O)c2cn(-c3cccc(C)n3)cn2)ccc1O`, 4.41%.
Consider `CCN1CCCC1CNC(=O)C(=O)NC(C)C` (stereo not shown), for which the “hERG current change (%, negative = inhibition) at 10uM” value is reported as 12.1%.
Under `Cc1ccnc2nc(C(=O)Nc3nccs3)nn12` stands 11.5%; under `CCOC(=O)N1CCC(NC(=O)C2CCN(S(=O)(=O)c3c(C)noc3C)CC2)CC1`, 0.661%.
Next, `Cc1ccccc1-c1nc(CS(=O)(=O)CC(=O)NCc2ccc(F)cc2)c(C)o1`: 4.94%.
Under `O=C1C2CCCN2C(c2ccco2)N1c1ccc(F)cc1` (stereo not shown) stands 6.05%; under `COc1ccccc1CNC(=O)COC(=O)Cc1c(Cl)cccc1Cl`, 7.12%; under `O=c1cc(C(F)(F)C(F)F)oc2ccccc12`, 3.32%.
Consider `COc1ccc(-c2[nH]ncc2CNCCn2cccn2)c(F)c1`, for which the “hERG current change (%, negative = inhibition) at 10uM” value was -46.1%.
Next, `O=c1cc(O)c2c(=O)n(-c3ccccc3)c3c(c2o1)CCCCC3`: -0.822%; `N#Cc1nc(-c2ccccc2F)oc1NCc1ccccc1`: 4.98%; `COc1ccc(C(c2sc3ncnn3c2O)N2CC(C)OC(C)C2)cc1OC` (stereo not shown): 11.8%.
On to `C=CCN(CC=C)S(=O)(=O)c1ncn[nH]1`, for which the “hERG current change (%, negative = inhibition) at 10uM” value is listed as 13.6%.
Consider `COc1ccc(-n2c(Cc3cccn3C)nnc2SCC(=O)Nc2ccc3c(c2)OCO3)cc1`, for which the “hERG current change (%, negative = inhibition) at 10uM” value is listed as -19.3%.
Under `N#CCSc1nnc(-c2ccccc2O)n1Cc1ccccc1` stands 5.13%.
With `O=C(CC(=O)NCCc1ccccc1)NCCc1ccccc1`, the “hERG current change (%, negative = inhibition) at 10uM” value is listed as 13.7%.
Under `Cc1noc(C)c1S(=O)(=O)N1CCC(C(=O)N2CCN(c3ccccc3Cl)CC2)CC1` stands -13.6%; under `COc1cccc(-c2ccc(C#N)c(SCC(=O)NCCc3ccc(Cl)cc3)n2)c1`, 0.0399%; under `O=C(CSCc1ccccc1)N1CCN(c2cccc(C(F)(F)F)c2)CC1`, -2.6%.
In the case of `Cc1nn(-c2ccc(F)cc2)c2sc(C(=O)OCC(=O)N3CCC(C)CC3)cc12`, the “hERG current change (%, negative = inhibition) at 10uM” value was -1.12%.
Under `CCCCN1CNC(=S)N(CCc2ccc(OCC)c(OCC)c2)C1` stands 9.26%; under `COc1ccc2cc(C(=O)NCCc3ccccc3)[nH]c2c1`, 15%.
On to `CC(=O)c1cc(CC=C(C)C)c(O)cc1O`, for which the “hERG current change (%, negative = inhibition) at 10uM” value is -3.51%.
Under `CC1CCN(c2ccc(/C=N/n3nnnc3N)cc2[N+](=O)[O-])CC1` stands 7.33%.
As for `O=[N+]([O-])c1ccc(C(O)CN2CCN(c3ccccc3)CC2)cc1` (stereo not shown), the “hERG current change (%, negative = inhibition) at 10uM” value was -50.3%.
Under `Cc1ccc(S(=O)(=O)n2nnc3ccccc32)c(C)c1C` stands 13.2%; under `Cc1sc2nc(CN3CCN(S(=O)(=O)c4cccc5nonc45)CC3)[nH]c(=O)c2c1C`, -1.9%.
Next, `CCCn1c(N)c(C(=O)NS(=O)(=O)c2ccc(C)cc2)c(=O)n(C)c1=O`: 0.404%.
